The results in this text go back to article PMC4259407, “HAX1 regulates E3 ubiquitin ligase activity of cIAPs by promoting their dimerization” (Oncotarget, 2014).

By UniProt entry, the sequences of proteins in these tests, tags left out. Where a name states a change or a piece, a line headed by the entry shows the natural chain unless it says otherwise. Residues count along the entry.
UniProt Q13489: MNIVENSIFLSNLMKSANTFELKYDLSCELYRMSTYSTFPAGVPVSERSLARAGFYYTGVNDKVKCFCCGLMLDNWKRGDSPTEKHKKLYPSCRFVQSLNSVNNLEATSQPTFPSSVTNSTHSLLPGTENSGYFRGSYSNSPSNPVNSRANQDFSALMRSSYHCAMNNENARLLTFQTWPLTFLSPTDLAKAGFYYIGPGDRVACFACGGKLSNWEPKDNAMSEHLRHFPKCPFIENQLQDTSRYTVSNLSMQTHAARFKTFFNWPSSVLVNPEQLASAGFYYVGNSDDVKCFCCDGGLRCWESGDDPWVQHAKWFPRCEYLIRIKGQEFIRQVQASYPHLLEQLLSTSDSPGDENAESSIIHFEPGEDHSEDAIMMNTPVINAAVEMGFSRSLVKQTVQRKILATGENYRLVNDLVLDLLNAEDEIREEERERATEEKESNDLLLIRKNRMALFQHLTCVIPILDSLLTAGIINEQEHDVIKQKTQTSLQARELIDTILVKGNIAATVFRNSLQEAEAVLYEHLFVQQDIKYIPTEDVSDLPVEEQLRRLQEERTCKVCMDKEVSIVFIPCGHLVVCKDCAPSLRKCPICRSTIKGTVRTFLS
CARD domain of cIAP2 (Supplementary Figure S1B): residues 439-529 of Q13489
UniProt Q13490: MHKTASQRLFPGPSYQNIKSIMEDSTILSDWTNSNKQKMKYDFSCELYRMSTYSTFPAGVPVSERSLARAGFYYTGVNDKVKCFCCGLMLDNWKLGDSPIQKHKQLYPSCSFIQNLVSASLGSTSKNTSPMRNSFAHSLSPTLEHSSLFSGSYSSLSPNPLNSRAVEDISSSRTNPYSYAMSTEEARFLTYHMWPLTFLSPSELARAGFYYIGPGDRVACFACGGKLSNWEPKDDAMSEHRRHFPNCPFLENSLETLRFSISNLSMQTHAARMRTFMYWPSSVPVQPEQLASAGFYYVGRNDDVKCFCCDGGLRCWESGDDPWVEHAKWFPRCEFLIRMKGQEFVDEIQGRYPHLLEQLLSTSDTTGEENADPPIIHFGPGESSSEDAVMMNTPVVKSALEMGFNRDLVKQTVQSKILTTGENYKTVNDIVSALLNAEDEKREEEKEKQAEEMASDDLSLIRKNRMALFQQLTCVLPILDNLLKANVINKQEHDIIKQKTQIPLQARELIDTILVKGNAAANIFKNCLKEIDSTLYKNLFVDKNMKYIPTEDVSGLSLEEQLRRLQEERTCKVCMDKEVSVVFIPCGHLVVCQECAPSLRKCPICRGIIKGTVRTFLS
UniProt O00165: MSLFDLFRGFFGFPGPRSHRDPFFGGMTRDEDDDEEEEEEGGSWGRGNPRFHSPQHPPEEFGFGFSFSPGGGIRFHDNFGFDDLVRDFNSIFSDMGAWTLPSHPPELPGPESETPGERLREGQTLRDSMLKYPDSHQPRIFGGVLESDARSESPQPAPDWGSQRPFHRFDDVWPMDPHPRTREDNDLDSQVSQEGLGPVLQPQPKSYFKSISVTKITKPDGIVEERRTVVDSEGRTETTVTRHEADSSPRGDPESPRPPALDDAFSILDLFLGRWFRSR

One assay deals with FLAG-cIAP2 (UniProt Q13489). The assay can be described thus: co-IP; FLAG-cIAP2 expressed in HEK293T cells (alone or with GFP-HAX1 deletion mutants), precipitated with anti-FLAG M2 agarose at 4°C; lysis buffer 20 mM Tris-HCl pH 7.5, 150 mM NaCl, 1% igepal, 10% glycerol; blots with anti-HAX1 or anti-GFP and anti-FLAG.
Assay [1] deals with HA-cIAP2 and Myc-cIAP2 (two differently tagged copies of cIAP2) (UniProt Q13489). The assay can be described thus: co-IP; in vivo dimerization assay: HEK 293T cells co-transfected with HA-cIAP2, Myc-cIAP2 and FLAG-HAX1 (0, 0.8 and 2 μg), MG132 (10 μM) for 7 h; precipitated with anti-HA agarose, 4 h at 4°C; more dimer with HAX1.
The target of assay [2] is CARD domain of cIAP2 (Supplementary Figure S1B) (UniProt Q13489). The assay can be described thus: co-IP; co-immunoprecipitation in HEK293T cells with the CARD domain of cIAP2 (Supplementary Figure S1B); antibodies and tags not told.
Assay [3] deals with endogenous cIAP2 (proximity ligation assay) (UniProt Q13489). In words: proximity ligation; endogenous proteins in cells (Supplementary Figure S2); cell line not stated.
Assay [4] concerns the target endogenous cIAP1 (proximity ligation assay) (UniProt Q13490). The description is as above.
The target of assay [5] is endogenous HAX1 (MDA-MB-231 cells) (human (endogenous in MDA-MB-231)) (UniProt O00165). The assay can be described thus: co-IP; MDA-MB-231 lysates incubated with IgG or anti-HAX1 antibody; blots with anti-cIAP2 and anti-HAX1; endogenous proteins.
The target of the next assay is HA-cIAP1 (UniProt Q13490). In words: co-IP; HA-cIAP1 and exogenous HAX1 expressed in HEK293T cells; HA-cIAP1 immunoprecipitated, immunoblot (Supplementary Figure S1A). On the technique in general: A western blot detects proteins with antibodies after separation by electrophoresis.

These are yes or no findings as the source states them, for the method shown. In cells and extracts the contact can be indirect. Some binding calls cover weakened binding; strength is not graded here.

Regarding “GFP-HAX1 C-terminal domain (a.a 128–279) (from UniProt O00165 128-279) (domain or fragment)”, the binding entry in the assay with FLAG-cIAP2 is “binds”. The same measure, in the same setting: to “GFP-HAX1N, N-terminal domain (a.a 1–127) (from UniProt O00165 1-127) (domain or fragment)” belongs “no binding”.

For the substance “HA-cIAP2 and Myc-cIAP2 (two differently tagged copies of cIAP2) (from UniProt Q13489 1-604)”, the binding entry in assay [1] was “binds”. Regarding “HAX1 (co-immunoprecipitation of Supplementary Figure S1B) (from UniProt O00165 1-279)”, in assay [2], the binding result is “binds”. Consider “endogenous HAX1 (HEK293T cells) (from UniProt O00165 1-279)”, for which, in the assay with FLAG-cIAP2, the binding result is given as “binds”. As for “endogenous HAX1 (proximity ligation assay) (from UniProt O00165 1-279)”, the binding entry in assay [3] and in assay [4] was “binds” in each case. Consider “endogenous cIAP2 (MDA-MB-231 cells) (from UniProt Q13489 1-604)”, for which the binding result in assay [5] was “binds”. For the substance “exogenous HAX1 (co-expressed with HA-cIAP1) (from UniProt O00165 1-279)”, in the assay with HA-cIAP1, the binding entry is listed as “binds”.
